The other results are listed elsewhere or left out.

In test [1] the test system is HSkMC (human skeletal muscle cells). In words: cytotoxicity call (relative viability < 0.9). Conditions: 10 µM.
Test [2] deals with HepG2. Description: cytotoxicity call (relative viability < 0.9). The following applies: 10 µM.
Test [3] has as its system S. aureus RN4220. In words: growth inhibition call (relative growth <= 0.2). The following applies: 50 µM.

On to `C[C@@H]1CN([C@H](C)CO)C(=O)c2cc(NC(=O)Nc3cccc4ccccc34)ccc2O[C@@H]1CN(C)C(=O)Nc1ccc(C(F)(F)F)cc1`, for which the cytotoxicity call in test [1] and in test [2] was “inactive” each time. Further, the growth inhibition call in test [3] was “inactive”.
Consider `C[C@@H]1CN([C@@H](C)CO)C(=O)c2cc(NS(=O)(=O)c3cn(C)cn3)ccc2O[C@@H](C)CCCCO[C@@H]1CN(C)C`, for which the cytotoxicity call in test [1] and in test [2] was “inactive” in each case. In addition, the growth inhibition call in test [3] was “inactive”.
On to `COc1ccc(NC(=O)Nc2ccc3c(c2)C(=O)N([C@H](C)CO)C[C@@H](C)[C@H](CN(C)Cc2ccc(Cl)c(Cl)c2)OCCCC[C@@H](C)O3)cc1`, for which the cytotoxicity call in test [1] and in test [2] was “active” in each case. In test [3], the growth inhibition call was “inactive”.
Regarding `COC(=O)c1cc(OC)c(OC)c(OC)c1`, the cytotoxicity call in test [1] and in test [2] was “inactive” each time. For the same molecule, in test [3], the growth inhibition call is “inactive”.
Consider `C[C@@H]1CCCCO[C@H](CN(C)Cc2ccc(C(=O)O)cc2)[C@H](C)CN([C@H](C)CO)C(=O)c2cc(NS(=O)(=O)c3ccc(Cl)cc3)ccc2O1`, for which the cytotoxicity call in test [1] and in test [2] was “inactive” in each case. Further, the growth inhibition call in test [3] was “inactive”.
`Cc1noc(C)c1NC(=O)N(C)C[C@H]1Oc2ccc(NC(=O)Nc3ccc(C(F)(F)F)cc3)cc2C(=O)N([C@H](C)CO)C[C@H]1C`: the cytotoxicity call in test [1] and in test [2] was “inactive” in each case. Moreover, in test [3], the growth inhibition call was “inactive”.
Take `C[C@@H]1CN([C@H](C)CO)C(=O)c2cc(NC(=O)Cc3cn(C)c4ccccc34)ccc2O[C@@H]1CN(C)Cc1ccc(-c2ccccc2)cc1`: the cytotoxicity call in test [1] and in test [2] was “inactive” throughout. Further, in test [3], the growth inhibition call is “inactive”.
With `C[C@H](CO)N1C[C@H](C)[C@H](CN(C)S(C)(=O)=O)OCc2cnnn2CCCC1=O`, the cytotoxicity call in test [1] and in test [2] was “inactive” in each case. Also, in test [3], the growth inhibition call is “inactive”.
With `Cc1cccnc1[C@H](c1ccc(F)cc1)N(C)C(=O)C1CCN(CCOc2ccc(Cl)cc2Cl)CC1`, in test [1], the cytotoxicity call is “active”. Moreover, the cytotoxicity call in test [2] was “inactive”. The growth inhibition call in test [3] was “active”.
As to `C[C@@H]1CN([C@@H](C)CO)S(=O)(=O)c2ccc(-c3cccnc3)cc2O[C@H]1CN(C)C(=O)NC1CCCC1`, the cytotoxicity call in test [1] and in test [2] was “inactive” throughout. Further, the growth inhibition call in test [3] is “inactive”.
For the molecule `COc1ccc2c3c([nH]c2c1)[C@@H](CO)N(C[C@]13CN(Cc2ccccc2F)C1)S(=O)(=O)c1cn(cn1)C`, the cytotoxicity call in test [1] and in test [2] was “inactive” throughout. The growth inhibition call in test [3] was “inactive”.
Take `COc1ccc(S(=O)(=O)N(C)C[C@@H]2Oc3ccc(NC(=O)c4ccncc4)cc3CC(=O)N([C@@H](C)CO)C[C@H]2C)cc1`: the cytotoxicity call in test [1] and in test [2] was “inactive” each time. Besides, the growth inhibition call in test [3] was “inactive”.
Turning to `CC(=O)Oc1ccccc1C(=O)O`, the cytotoxicity call in test [1] and in test [2] was “inactive” each time. For the same molecule, the growth inhibition call in test [3] is “inactive”.
As to `C[C@@H]1CN([C@@H](C)CO)S(=O)(=O)c2ccc(C3=CCCC3)cc2O[C@@H]1CN(C)C(=O)C1CCOCC1`, the cytotoxicity call in test [1] and in test [2] was “inactive” throughout. In test [3], the growth inhibition call is “inactive”.
With `C[C@H]1CN([C@@H](C)CO)C(=O)Cc2cc(NC(=O)C3CCCCC3)ccc2O[C@@H]1CN(C)Cc1ccc(C(=O)Nc2ccccc2N)cc1`, the cytotoxicity call in test [1] and in test [2] was “inactive” in each case. For the same molecule, the growth inhibition call in test [3] is “inactive”.
In the case of `C[C@@H]1CCCCO[C@@H](CN(C)S(=O)(=O)c2cn(C)cn2)[C@@H](C)CN([C@@H](C)CO)C(=O)c2cc(NS(C)(=O)=O)ccc2O1`, the cytotoxicity call in test [1] and in test [2] was “inactive” each time. The growth inhibition call in test [3] was “inactive”.
Take `CC(=O)Nc1c(I)c(NC(C)=O)c(I)c(C(=O)O)c1I`: the cytotoxicity call in test [1] and in test [2] was “inactive” throughout. Further, in test [3], the growth inhibition call was “inactive”.
Take `C=C(CC)C(=O)c1ccc(OCC(=O)O)c(Cl)c1Cl`: the cytotoxicity call in test [1] and in test [2] was “inactive” in each case. Besides, in test [3], the growth inhibition call is “inactive”.
For `CC(C)CC#Cc1cnc2c(c1)C(=O)N([C@@H](C)CO)C[C@@H](C)[C@@H](CN(C)S(=O)(=O)c1cccs1)O2`, the cytotoxicity call in test [1] and in test [2] was “inactive” throughout. For the same molecule, the growth inhibition call in test [3] was “inactive”.
On to `Cc1noc(C)c1S(=O)(=O)Nc1ccc2c(c1)C(=O)N([C@H](C)CO)C[C@@H](C)[C@H](CN(C)Cc1ccc(C(=O)O)cc1)O2`, for which the cytotoxicity call in test [1] and in test [2] was “inactive” throughout. The growth inhibition call in test [3] was “inactive”.
Consider `CN1C(=O)c2cc(NS(=O)(=O)c3cccc(F)c3)ccc2OC[C@@H]2O[C@@H](CC(=O)NCCN3CCCCC3)CC[C@@H]21`, for which the cytotoxicity call in test [1] and in test [2] was “inactive” in each case. Also, the growth inhibition call in test [3] was “inactive”.
With `C[C@@H]1CN([C@H](C)CO)C(=O)CCCn2cc(nn2)CO[C@@H]1CN(C)C(=O)CCCN(C)C`, the cytotoxicity call in test [1] and in test [2] was “inactive” throughout. Also, the growth inhibition call in test [3] was “inactive”.
`COc1ccc(S(=O)(=O)N(C)C[C@H]2Oc3ccc(NC(=O)c4ccncc4)cc3C(=O)N([C@H](C)CO)C[C@@H]2C)cc1`: the cytotoxicity call in test [1] and in test [2] was “inactive” each time. Besides, the growth inhibition call in test [3] is “inactive”.
As to `CS(=O)(=O)NC[C@@H]1OC[C@@H]2CN(C(=O)c3ccnnc3)CC[C@@H]21`, the cytotoxicity call in test [1] and in test [2] was “inactive” throughout. Besides, in test [3], the growth inhibition call is “inactive”.
With `C[C@H](CO)N1C[C@H](C)[C@H](CN(C)S(=O)(=O)c2cccs2)OCCCC[C@H](C)Oc2ccc(NS(C)(=O)=O)cc2C1=O`, the cytotoxicity call in test [1] and in test [2] was “inactive” throughout. Besides, in test [3], the growth inhibition call was “inactive”.
With `C[C@H]1CN([C@@H](C)CO)C(=O)c2cc(C#Cc3cccnc3)cnc2O[C@H]1CN(C)Cc1ccc(F)cc1`, the cytotoxicity call in test [1] and in test [2] was “inactive” throughout. Moreover, the growth inhibition call in test [3] is “inactive”.
`C[C@H]1CCCCO[C@H](CN(C)Cc2ccncc2)[C@@H](C)CN([C@@H](C)CO)C(=O)c2cc(NC(=O)Nc3ccc4c(c3)OCO4)ccc2O1`: the cytotoxicity call in test [1] and in test [2] was “inactive” each time. The growth inhibition call in test [3] was “inactive”.
On to `C[C@H]1CN([C@@H](C)CO)C(=O)c2cc(NS(=O)(=O)c3ccc(F)cc3)ccc2O[C@H]1CN(C)S(=O)(=O)c1ccc(F)cc1`, for which the cytotoxicity call in test [1] and in test [2] was “inactive” in each case. In test [3], the growth inhibition call was “inactive”.

(Values after the antibiotic and cytotoxicity screens of Wong et al. (2023).)
